# Results as given in PubChem BioAssay AID504332 (National Center for Advancing Translational Sciences (NCATS), 2011).
# Screen size: about 350,000 compounds; about 31,000 (8.9%) were called active. Inconclusive results, whose numbers are uncertain, are shown with a selection of clear calls. Calls come from the whole dose curve; as a rule, active = well fitted inhibition curve with a large enough effect; inconclusive = small, poorly fitted or top-dose-only effect; inactive = no such curve, though single readings can be large or run the other way. Where the call is inconclusive, the potency comes from a doubtful curve fit.
# Molecular target: Histone-lysine N-methyltransferase EHMT2 (Homo sapiens) (UniProt Q96KQ7)
# Test: qHTS Assay for Inhibitors of Histone Lysine Methyltransferase G9a; note: nearly all actives have a fitted effect of over 75% in size
# Details: G9a H3K9 monomethylation, AlphaScreen, 2 h; activity, negative = inhibition: at 59 µM (top of the series) unless noted
# How it was run: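 Compounds were preincubated with 20 nM G9a for 15 min, after which biotinylated H3K9 peptide (500 nM) and SAM (20 uM) started a 2 h room-temperature reaction. Monomethylated product was quantified by antibody-based AlphaScreen chemiluminescence.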
# % is set by controls: 0 for no effect and ±100 for the full control effect; potency is the fitted concentration of half-maximal effect; tags give direction and shape of the fitted curve.
# Chain of UniProt Q96KQ7 (Q96KQ7 whole entry, looked up): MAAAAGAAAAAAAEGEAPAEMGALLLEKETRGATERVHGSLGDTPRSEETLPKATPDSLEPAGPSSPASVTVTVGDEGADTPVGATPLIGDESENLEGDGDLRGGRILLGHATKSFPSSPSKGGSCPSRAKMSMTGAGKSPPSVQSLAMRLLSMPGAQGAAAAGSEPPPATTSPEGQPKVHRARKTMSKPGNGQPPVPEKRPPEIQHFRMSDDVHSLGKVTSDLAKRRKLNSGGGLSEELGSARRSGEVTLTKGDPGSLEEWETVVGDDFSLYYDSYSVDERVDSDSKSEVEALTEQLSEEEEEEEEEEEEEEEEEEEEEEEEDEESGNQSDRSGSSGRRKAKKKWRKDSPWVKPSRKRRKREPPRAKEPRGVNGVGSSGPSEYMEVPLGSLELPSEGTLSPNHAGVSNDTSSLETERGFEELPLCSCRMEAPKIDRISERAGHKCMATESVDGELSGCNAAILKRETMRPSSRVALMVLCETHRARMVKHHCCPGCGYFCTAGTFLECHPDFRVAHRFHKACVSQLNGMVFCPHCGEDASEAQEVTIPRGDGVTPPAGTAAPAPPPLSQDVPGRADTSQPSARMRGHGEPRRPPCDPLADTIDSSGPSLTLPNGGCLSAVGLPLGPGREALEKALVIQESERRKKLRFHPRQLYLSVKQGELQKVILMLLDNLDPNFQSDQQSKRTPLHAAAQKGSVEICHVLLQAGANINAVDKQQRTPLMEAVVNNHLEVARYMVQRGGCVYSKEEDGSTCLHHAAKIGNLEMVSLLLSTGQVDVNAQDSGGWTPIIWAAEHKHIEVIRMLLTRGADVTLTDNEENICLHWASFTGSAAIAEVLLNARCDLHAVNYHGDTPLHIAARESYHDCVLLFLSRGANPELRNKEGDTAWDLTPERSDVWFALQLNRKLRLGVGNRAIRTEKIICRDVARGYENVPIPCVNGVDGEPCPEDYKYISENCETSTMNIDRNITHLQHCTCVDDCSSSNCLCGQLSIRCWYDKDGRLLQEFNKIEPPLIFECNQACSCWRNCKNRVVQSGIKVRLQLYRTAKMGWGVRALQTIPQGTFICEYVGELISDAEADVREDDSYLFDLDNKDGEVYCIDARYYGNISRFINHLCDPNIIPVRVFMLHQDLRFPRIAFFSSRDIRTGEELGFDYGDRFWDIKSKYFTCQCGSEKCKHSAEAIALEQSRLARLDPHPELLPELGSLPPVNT
SMILES,Potency,"activity, negative = inhibition"
CC1(C)CC2(CCO1)CNC(=O)O2 (stereo not given),inactive,
Cc1ccccc1-n1cc(CNC(=O)CC2C(=O)NCCN2C/C=C/c2ccccc2)cn1 (stereo not given),"inconclusive: 79.4 µM [inhibitor, partial curve, poor fit]",
CCCOc1cccc(OCC(=O)Nc2nc3ccccc3[nH]2)c1,"inconclusive: 79.4 µM [inhibitor, single point]",
COc1ccc(NC(=O)CSc2nc3ccsc3c(=O)n2CCCCCC(=O)O)cc1,"inconclusive: 89.1 µM [inhibitor, single point]",
COc1ccc(C2OCC3(CO2)SC(N)=NC3=O)cc1 (stereo not given),"inconclusive: 100 µM [inhibitor, partial curve, poor fit]",
COc1cc(/C=N/NC(=O)c2cccnc2)cc(Br)c1O,"inconclusive: 89.1 µM [inhibitor, single point]",
CC1Cc2ccccc2N1C(=O)CN(C)CC(=O)Nc1ccc(F)cc1 (stereo not given),,inactive: -0.931% [at 12.7 µM]
FC(F)(F)c1cccc(CN2CCSCC2)c1,active: 10 µM,
COc1ccc(-c2csc3nc(-c4cccnc4)nc(Cl)c23)cc1OC,"inconclusive: 8.91 µM [inhibitor, partial curve, poor fit]",
Cc1nnsc1C(=O)Oc1ccccc1Cl,"inconclusive: 14.1 µM [inhibitor, partial curve]",
CC1(C)C(c2ccccc2)=NC(c2ccccc2)N1O (stereo not given),"inconclusive: 3.16 µM [inhibitor, partial curve, poor fit]",
NC(=O)c1cc2nc(-c3ccco3)cc(C(F)(F)F)n2n1,"inconclusive: 39.8 µM [inhibitor, single point]",
Cc1cccc(N2N=C(C(=O)N3CC(=O)Nc4ccccc43)CCC2=O)c1,"inconclusive: 89.1 µM [inhibitor, partial curve, poor fit]",
COc1ccc(S(=O)(=O)n2nc(OC(=O)c3c(-c4ccccc4Cl)noc3C)cc2N)cc1,,inconclusive: -79.7% [inhibitor] [at 2.33 µM]
CCOC(=O)C(C)Sc1nnc(Cc2cc(=O)[nH]c(=O)[nH]2)n1-c1ccc(Cl)cc1 (stereo not given),"inconclusive: 28.2 µM [inhibitor, single point]",
CN(CC(=O)Nc1ccc(F)cc1)CC(=O)N1CCCCC1,"inconclusive: 7.08 µM [inhibitor, single point]",
CCC(C)(NC(=O)c1ccc2c(c1)OCO2)C(=O)NC1CCCCC1 (stereo not given),inactive,
Cc1cc(C)n(Cc2ccc(NC(=O)c3c([N+](=O)[O-])c(C)nn3C)cc2)n1,"inconclusive: 31.6 µM [inhibitor, partial curve, poor fit]",
COc1ccc(S(=O)(=O)N(C)C)cc1NC(=O)CN1C(=O)NC2(CCCC2)C1=O,"inconclusive: 6.31 µM [inhibitor, full curve]",
COc1ccc(CNC(=O)C/C(C)=N/NC(=O)COc2ccc(Br)cc2)cc1,inactive,
O=C(NNc1ccccc1[N+](=O)[O-])Nc1ccc(F)cc1F,active: 31.6 µM,
COCCNc1nc2sc3c(c2c(=O)n1Cc1ccco1)CCCCC3,"inconclusive: 79.4 µM [inhibitor, single point]",
Cc1c(C)n(C)c2ccc(C(=O)NCCN3CCOCC3)cc12,"inconclusive: 89.1 µM [inhibitor, single point]",
Nc1c2c3c(sc2nc(=O)n1N)CCCC3,"inconclusive: 89.1 µM [inhibitor, partial curve, poor fit]",

SMILES,Potency,"activity, negative = inhibition"
O=C(N/N=C/c1cc([N+](=O)[O-])cc([N+](=O)[O-])c1O)/C(=C\c1cccs1)NC(=O)c1ccccc1,"inconclusive: 89.1 µM [inhibitor, single point]",
Cc1ccc(NC(=O)CSc2nnc(-c3cc4occc4n3C)n2-c2ccccc2C)cc1F,"inconclusive: 22.4 µM [inhibitor, partial curve, poor fit]",
CCn1c(C(=O)Nc2cc(C)cc(C)c2)cc2sc(Cl)cc21,inactive,
CC(C)C(Nc1ccc(S(=O)(=O)N2CCOCC2)cc1[N+](=O)[O-])C(=O)O (stereo not given),"inconclusive: 79.4 µM [inhibitor, single point]",
COc1ccc(C(CNC(=O)C2CCN(S(=O)(=O)c3ccc(F)cc3)CC2)N(C)C)cc1 (stereo not given),inactive,
CSc1ccccc1NC(=O)CCS(=O)(=O)c1nc(-c2cccs2)cc(C(F)(F)F)n1,active: 3.16 µM,
c1csc(CNc2nc(-c3cccs3)nc3ccccc23)c1,inactive,
CCS(=O)(=O)c1ccc(O)c(NC(=O)Nc2cccc3ccccc23)c1,"inconclusive: 89.1 µM [inhibitor, single point]",
CCOc1ccc2nc(SCC(=O)N(CCOC)c3c(N)n(Cc4ccccc4)c(=O)[nH]c3=O)[nH]c2c1,active: 10 µM,
CCN1CCCC1CNC(=O)C1CCN(C(=O)c2cc3sccc3n2Cc2ccc(F)cc2)CC1 (stereo not given),"inconclusive: 50.1 µM [inhibitor, partial curve]",
COc1ccccc1CNc1cc(-c2cccc(C#N)c2)ncn1,,inactive: 16.3% [at 0.501 µM]
O=C1CN(C(=O)COC(=O)/C=C/c2ccco2)c2ccccc2N1,active: 44.7 µM,
CC(C)(C)c1cc(NCCCn2ccnc2)n2ncc(-c3ccccc3)c2n1,"inconclusive: 50.1 µM [inhibitor, partial curve]",
C/C(CCC12CC3CC(CC(C3)C1)C2)=N\NC(N)=S,inactive,
Cc1nc(NC(=O)c2ccc(Cl)cc2)sc1-c1csc(Nc2cccc(F)c2)n1,active: 50.1 µM,
CCOC(=O)c1c(N)sc2c1CCSC2,active: 50.1 µM,
CC1(C)C2CCC1(C)C1(C2)NC(=O)c2ccccc2O1 (stereo not given),"inconclusive: 79.4 µM [inhibitor, partial curve, poor fit]",
c1coc(-c2nn3c(-c4ccco4)nnc3s2)c1,"inconclusive: 39.8 µM [inhibitor, single point]",
Cc1cc(C(=O)CSc2nc3ccccc3c(=O)n2C)c(C)n1CC1CCCO1 (stereo not given),,inconclusive: -53.4% [inhibitor] [at 102 µM]
Cc1cc(SCC(=O)NCc2ccccc2)nc(=O)[nH]1,inactive,
CC1CCN(S(=O)(=O)c2ccc3c(c2)c(=O)c(C(=O)NCc2ccco2)cn3C)CC1,active: 79.4 µM,
CN(C)CCCn1cnc2c(c1=N)C(c1ccccc1)c1ccc3ccccc3c1O2 (stereo not given),"inconclusive: 79.4 µM [inhibitor, single point]",
CCOc1ccc(N2C(=O)CC(NCCc3ccncc3)C2=O)cc1 (stereo not given),inactive,
Cc1cc(OC(=O)c2ccc(S(=O)(=O)N3CCCC3)cc2)c([N+](=O)[O-])c(=O)[nH]1,"inconclusive: 70.8 µM [inhibitor, partial curve]",

SMILES,Potency,"activity, negative = inhibition"
CCOC(=O)c1c(-c2ccccc2)csc1NC(=O)c1cc(-c2cccc(OC)c2)on1,active: 3.98 µM,
Cc1cc(NC(=O)c2ccc(Cl)cc2)n(CCOC(=O)c2ccc(Cl)cc2)n1,"inconclusive: 50.1 µM [inhibitor, partial curve]",
C=CCNC(=S)/N=c1/ccccn1Cc1ccccc1,active: 31.6 µM,
Cc1ccccc1NC(=S)N(CCN(C)C)C(C)c1ccccn1 (stereo not given),inactive,
Cc1cc(C)cc(-n2ccnc2SCC(=O)c2c(N)n(C3CC3)c(=O)[nH]c2=O)c1,active: 2.51 µM,
O=C1C(Cc2ccccc2)Nc2ncnc(N3CCCCC3)c2N1Cc1ccc(Cl)cc1 (stereo not given),"inconclusive: 3.98 µM [inhibitor, single point]",
CC(C)(C)c1ccccc1OCCN1CCCC1,"inconclusive: 3.98 µM [inhibitor, single point]",
Cc1nc(SCC(=O)N2CCN(c3ccccc3)CC2)c2oc3ccccc3c2n1,"inconclusive: 44.7 µM [inhibitor, partial curve, poor fit]",
O=C(O)/C=C/c1cccc(NS(=O)(=O)c2ccccc2)c1,inactive,
Cc1ccc2[nH]c(=O)c(-c3nc4ccccn4c3NCc3ccco3)cc2c1,"inconclusive: 89.1 µM [inhibitor, single point]",
NC1=NC(=O)C(CC(=O)Nc2ccc3c(c2)OCO3)S1 (stereo not given),active: 50.1 µM,
CCC(=O)N1c2nc(C(C)C)nn2C2(CCCCC2)[C@@H]2CCCC[C@@H]21,inactive,
Cc1ccc(OCCC(=O)Nc2ccc(F)c(Cl)c2)cc1,inactive,
COc1ccc(N2CCN(C(CNC(=O)C(=O)NCCCn3ccnc3)c3cccnc3)CC2)cc1 (stereo not given),"inconclusive: 89.1 µM [inhibitor, single point]",
C=CCOc1ccc(/C=C/C(=O)OCC(=O)NCCCc2ccccc2)cc1,inactive,
O=C(Nc1ccc(Oc2ccccc2)nc1)C1CCCCN1Cc1cccc(OCCO)c1 (stereo not given),"inconclusive: 89.1 µM [inhibitor, single point]",
OCCN(CC#CC(O)(c1ccccc1)C1CCCCC1)CCO (stereo not given),"inconclusive: 39.8 µM [inhibitor, single point]",
O=C1c2ccccc2C(=O)N1OCCOCCOCCBr,"inconclusive: 100 µM [inhibitor, single point]",
CCOC(=O)N1CCN(C(=O)COC(=O)CSc2ccc([N+](=O)[O-])cc2)CC1,"inconclusive: 79.4 µM [inhibitor, partial curve, poor fit]",
Cc1ccc(C)c(OCCC(=O)OCC(=O)Nc2ccc(N3CCOCC3)cc2)c1,"inconclusive: 50.1 µM [inhibitor, partial curve, poor fit]",
Cc1c(C(=O)N(C)C)c2cc(Cl)ccc2n1O,"inconclusive: 5.01 µM [inhibitor, full curve, poor fit]",
CC(C)Sc1oc(-c2ccco2)nc1S(=O)(=O)c1ccccc1,"inconclusive: 28.2 µM [inhibitor, single point]",
